Measured values taken from the supplement of paper PMC12423691.
This is one part of the list. Binding of human transcription factors and regulators to the viral nucleoprotein by AlphaScreen, crude cell-free proteins, amounts not normalised, one pass. Fold of the Venus control; higher = more signal. No active / inactive call. Single-pass screen; sequences are the whole Swiss-Prot entries looked up by name.

B1: ID2, Q02363 (protein)
chain: MKAFSPVRSVRKNSLSDHSLGISRSKTPVDDPMSLLYNMNDCYSKLKELVPSIPQNKKVSKMEILQHVIDYILDLQIALDSHPTIVSLHHQRPGQNQASRTPLTTLNTDISILSLQASEFPSELMSNDSKALCG
B2: ZNF516, Q92618 (protein)
chain: MDRNREAEMELRRGPSPTRAGRGHEVDGDKATCHTCCICGKSFPFQSSLSQHMRKHTGEKPYKCPYCDHRASQKGNLKIHIRSHRTGTLIQGHEPEAGEAPLGEMRASEGLDACASPTKSASACNRLLNGASQADGARVLNGASQADSGRVLLRSSKKGAEGSACAPGEAKAAVQCSFCKSQFERKKDLELHVHQAHKPFKCRLCSYATLREESLLSHIERDHITAQGPGSGEACVENGKPELSPGEFPCEVCGQAFSQTWFLKAHMKKHRGSFDHGCHICGRRFKEPWFLKNHMKAHGPKTGSKNRPKSELDPIATINNVVQEEVIVAGLSLYEVCAKCGNLFTNLDSLNAHNAIHRRVEASRTRAPAEEGAEGPSDTKQFFLQCLNLRPSAAGDSCPGTQAGRRVAELDPVNSYQAWQLATRGKVAEPAEYLKYGAWDEALAGDVAFDKDRREYVLVSQEKRKREQDAPAAQGPPRKRASGPGDPAPAGHLDPRSAARPNRRAAATTGQGKSSECFECGKIFRTYHQMVLHSRVHRRARRERDSDGDRAARARCGSLSEGDSASQPSSPGSACAAADSPGSGLADEAAEDSGEEGAPEPAPGGQPRRCCFSEEVTSTELSSGDQSHKMGDNASERDTGESKAGIAASVSILENSSRETSRRQEQHRFSMDLKMPAFHPKQEVPVPGDGVEFPSSTGAEGQTGHPAEKLSDLHNKEHSGGGKRALAPDLMPLDLSARSTRDDPSNKETASSLQAALVVHPCPYCSHKTYYPEVLWMHKRIWHRVSCNSVAPPWIQPNGYKSIRSNLVFLSRSGRTGPPPALGGKECQPLLLARFTRTQVPGGMPGSKSGSSPLGVVTKAASMPKNKESHSGGPCALWAPGPDGYRQTKPCHGQEPHGAATQGPLAKPRQEASSKPVPAPGGGGFSRSATPTPTVIARAGAQPSANSKPVEKFGVPPAGAGFAPTNKHSAPDSLKAKFSAQPQGPPPAKGEGGAPPLPPREPPSKAAQELRTLATCAAGSRGDAALQAQPGVAGAPPVLHSIKQEPVAEGHEKRLDILNIFKTYIPKDFATLYQGWGVSGPGLEHRGTLRTQARPGEFVCIECGKSFHQPGHLRAHMRAHSVVFESDGPRGSEVHTTSADAPKQGRDHSNTGTVQTVPLRKGT
B3: S100A8, P05109 (protein)
chain: MLTELEKALNSIIDVYHKYSLIKGNFHAVYRDDLKKLLETECPQYIRKKGADVWFKELDINTDGAVNFQEFLILVIKMGVAAHKKSHEESHKE
B4: BARHL2, Q9NY43 (protein)
chain: MTMEGASGSSFGIDTILSSASSGSPGMMNGDFRPLGEARTADFRSQATPSPCSEIDTVGTAPSSPISVTMEPPEPHLVADATQHHHHLHHSQQPPPPAAAPTQSLQPLPQQQQPLPPQQPPPPPPQQLGSAASAPRTSTSSFLIKDILGDSKPLAACAPYSTSVSSPHHTPKQESNAVHESFRPKLEQEDSKTKLDKREDSQSDIKCHGTKEEGDREITSSRESPPVRAKKPRKARTAFSDHQLNQLERSFERQKYLSVQDRMDLAAALNLTDTQVKTWYQNRRTKWKRQTAVGLELLAEAGNYSALQRMFPSPYFYHPSLLGSMDSTTAAAAAAAMYSSMYRTPPAPHPQLQRPLVPRVLIHGLGPGGQPALNPLSSPIPGTPHPR
B5: HHEX, Q03014 (protein)
chain: MQYPHPGPAAGAVGVPLYAPTPLLQPAHPTPFYIEDILGRGPAAPTPAPTLPSPNSSFTSLVSPYRTPVYEPTPIHPAFSHHSAAALAAAYGPGGFGGPLYPFPRTVNDYTHALLRHDPLGKPLLWSPFLQRPLHKRKGGQVRFSNDQTIELEKKFETQKYLSPPERKRLAKMLQLSERQVKTWFQNRRAKWRRLKQENPQSNKKEELESLDSSCDQRQDLPSEQNKGASLDSSQCSPSPASQEDLESEISEDSDQEVDIEGDKSYFNAG
B6: RARG, P13631 (protein)
chain: MATNKERLFAAGALGPGSGYPGAGFPFAFPGALRGSPPFEMLSPSFRGLGQPDLPKEMASLSVETQSTSSEEMVPSSPSPPPPPRVYKPCFVCNDKSSGYHYGVSSCEGCKGFFRRSIQKNMVYTCHRDKNCIINKVTRNRCQYCRLQKCFEVGMSKEAVRNDRNKKKKEVKEEGSPDSYELSPQLEELITKVSKAHQETFPSLCQLGKYTTNSSADHRVQLDLGLWDKFSELATKCIIKIVEFAKRLPGFTGLSIADQITLLKAACLDILMLRICTRYTPEQDTMTFSDGLTLNRTQMHNAGFGPLTDLVFAFAGQLLPLEMDDTETGLLSAICLICGDRMDLEEPEKVDKLQEPLLEALRLYARRRRPSQPYMFPRMLMKITDLRGISTKGAERAITLKMEIPGPMPPLIREMLENPEMFEDDSSQPGPHPNASSEDEVPGGQGKGGLKSPA
B7: EBF1, Q9UH73 (protein)
chain: MFGIQESIQRSGSSMKEEPLGSGMNAVRTWMQGAGVLDANTAAQSGVGLARAHFEKQPPSNLRKSNFFHFVLALYDRQGQPVEIERTAFVGFVEKEKEANSEKTNNGIHYRLQLLYSNGIRTEQDFYVRLIDSMTKQAIVYEGQDKNPEMCRVLLTHEIMCSRCCDKKSCGNRNETPSDPVIIDRFFLKFFLKCNQNCLKNAGNPRDMRRFQVVVSTTVNVDGHVLAVSDNMFVHNNSKHGRRARRLDPSEGTPSYLEHATPCIKAISPSEGWTTGGATVIIIGDNFFDGLQVIFGTMLVWSELITPHAIRVQTPPRHIPGVVEVTLSYKSKQFCKGTPGRFIYTALNEPTIDYGFQRLQKVIPRHPGDPERLPKEVILKRAADLVEALYGMPHNNQEIILKRAADIAEALYSVPRNHNQLPALANTSVHAGMMGVNSFSGQLAVNVSEASQATNQGFTRNSSSVSPHGYVPSTTPQQTNYNSVTTSMNGYGSAAMSNLGGSPTFLNGSAANSPYAIVPSSPTMASSTSLPSNCSSSSGIFSFSPANMVSAVKQKSAFAPVVRPQTSPPPTCTSTNGNSLQAISGMIVPPM

molecular target: nucleoprotein N of Crimean-Congo hemorrhagic fever virus; assay: AlphaScreen luminescence signal relative to Venus negative control (fold); higher = stronger binding to CCHFV N
Description: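 AlphaScreen binding of cell-free made, FLAG-GST-tagged human transcription factors and regulators (crude translation products) to biotinylated N protein; signal as fold of the FLAG-GST-Venus control. One pass.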

Row | Binder | AlphaScreen luminescence signal
1 | B1 | 1.95
2 | B2 | 2.6
3 | B3 | 1.35
4 | B4 | 2.28
5 | B5 | 3.67
6 | B6 | 2.7
7 | B7 | 1.95
